For 110 sequences, binding signal results are on record in publication PMC10668032.

This is one part of the list. At the low end of the ranking the order means little.

The test deals with SIX1 homeodomain (reference allele) (UniProt Q15475). Kind of test: universal protein binding microarray. The settings on record: Universal all-10-mer PBM (8x60K, AMADID 030236), 300 nM GST-tagged protein, Alexa Fluor 488 anti-GST; buffer, salt, pH and temperature not stated; high values mean tight binding; most listed sequences are background and not binding sites; double strand, one strand shown.
For the sequence ATTACTGG, the binding signal came out at 0.107 E-score. The result for ACCACGAA reads 0.0223 E-score; that for TCATGGCA, -0.0688 E-score; that for AGTAGGCC, -0.227 E-score. In the case of CAGTTGAG, the binding signal is -0.144 E-score. Take ACTGATCG: the binding signal is 0.156 E-score.

With CACATTCG, the binding signal was -0.0447 E-score. The result for GCGGACAA reads -0.177 E-score.

AAGCGGGC: the binding signal is -0.256 E-score. The same measure for GAAGTTCC: -0.349 E-score; for CAGGGATC: 0.42 E-score; for GTCGCTCA: -0.231 E-score.

Turning to GTAGTGAC, the binding signal is 0.0448 E-score.

Consider CATAAAGC, for which the binding signal was -0.123 E-score. The same measure for GGAAGACC: -0.236 E-score; for ACCGGTAG: -0.0329 E-score; for ACTAACAA: -0.243 E-score. The result for GAAACCCC reads 0.121 E-score; that for CCCAGGTA, 0.17 E-score; that for ACCGTTCT, -0.269 E-score. As for AACGAACT, the binding signal was -0.112 E-score. The result for AAAAATCA reads -0.142 E-score; that for TGTCATAA, 0.00529 E-score; that for GATGCTCC, -0.0897 E-score. In the case of CGCCCCAA, the binding signal was -0.0309 E-score. In the case of CCAAAGAC, the binding signal was -0.119 E-score. Take CTAATATA: the binding signal worked out at 0.261 E-score. The same measure for GAAAGTAC: -0.28 E-score. The same measure for TACTCACA: 0.165 E-score; for ATGGGTAG: 0.121 E-score; for ATTATCCC: 0.274 E-score. The result for AGCACCAC reads -0.0988 E-score. For ATGATCTG, the binding signal is 0.355 E-score. Regarding GTCATCGA, the binding signal is -0.0083 E-score. The result for GCTGCTCC reads -0.264 E-score. In the case of GAATCCCA, the binding signal was determined as 0.165 E-score.

Take AAGGAGAT: the binding signal turned out to be 0.232 E-score. The result for ATGGGATG reads 4.5e-05 E-score.

As to AAATTGCA, the binding signal is -0.246 E-score.

ATCTCAGG: the binding signal was 0.164 E-score. The same measure for ATTCAAAG: -0.308 E-score.

As to GACAATAA, the binding signal stood at 0.0406 E-score. The same measure for TATGTTGA: 0.0435 E-score; for CAGGCCGG: -0.0961 E-score; for CCTTATTA: 0.0415 E-score.

Consider GCCGCGTA, for which the binding signal is -0.0843 E-score. The same measure for AGACAGGG: -0.0395 E-score; for GCGGGCCA: -0.202 E-score; for CCATGTGC: -0.14 E-score.

In the case of CGCGGCCG, the binding signal was -0.0562 E-score. On to GCACGCGA, for which the binding signal is -0.0204 E-score. The result for AGAAATGC reads -0.17 E-score; that for AGCGAGGG, -0.00814 E-score. The same measure for ACTTCGTC: 0.0277 E-score; for AACGTATC: 0.385 E-score. The same measure for AAGCGTTA: -0.267 E-score; for ACACGGAA: 0.0633 E-score. As to CTGAAACA, the binding signal is -0.15 E-score. The result for GAGAGTAA reads -0.116 E-score; that for CTCAATCA, -0.0919 E-score; that for AGCTACGC, -0.0418 E-score. Turning to GGTGGAAC, the binding signal is -0.25 E-score.

For GTGTCTCA, the binding signal turned out to be 0.236 E-score.

As to GTCCGGAC, the binding signal is -0.00288 E-score. ACGCCCTC: the binding signal is -0.108 E-score. Turning to AACTCCTT, the binding signal is -0.235 E-score. The result for ACGTGAGC reads -0.0691 E-score; that for AATCACAC, 0.0767 E-score. Consider GCGAATCA, for which the binding signal is -0.23 E-score. The same measure for CTACTTTA: -0.0152 E-score; for AGCCCTTC: -0.143 E-score; for CCGCGGTC: -0.137 E-score.

As for AGCTCTAT, the binding signal stood at 0.0837 E-score. The result for AGCACCTA reads -0.109 E-score; that for ACAGTGCC, 0.069 E-score. With GTGAGCGA, the binding signal worked out at 0.0646 E-score. With ACGCGTGA, the binding signal was 0.0637 E-score. Turning to AGAAACAA, the binding signal is -0.229 E-score. The result for AGTACATG reads 0.0723 E-score; that for GCAATTGA, -0.0701 E-score. The same measure for ACGTGATC: 0.302 E-score; for CCAGGTAG: -0.00324 E-score. The same measure for GCTTCAAA: -0.173 E-score. With TCCGTCGA, the binding signal worked out at 0.0718 E-score. The same measure for AAAGACGC: -0.138 E-score; for ATTGTCTC: 0.002 E-score; for CAAGAGGA: -0.117 E-score.

Turning to ATAAATCG, the binding signal is -0.175 E-score. The result for ATCCGGCC reads 0.316 E-score.

As to AGTGGAAC, the binding signal was -0.054 E-score. The same measure for ATATGAGA: 0.209 E-score; for AGAGGTGG: -0.201 E-score.

Turning to CAGGCGCG, the binding signal was -0.131 E-score. The same measure for GTATGAGA: 0.167 E-score. The same measure for CTGAGCAA: -0.106 E-score.

Take TAGGTTGA: the binding signal amounted to 0.132 E-score. Consider AAGCATCC, for which the binding signal was -0.0588 E-score. The same measure for CTTGGTTA: -0.0175 E-score; for ATTAGTAG: 0.0515 E-score; for CCGAGCTC: 0.0627 E-score. For the sequence AGGAGACA, the binding signal amounted to 0.00869 E-score. Regarding CTTCGACA, the binding signal is -0.144 E-score. The result for AAGATCAC reads 0.239 E-score; that for ACGAAATG, -0.0953 E-score; that for TATTGAGA, 0.237 E-score.

On to CTTCCCTC, for which the binding signal was -0.0832 E-score. The same measure for CTCGAAAC: -0.104 E-score; for GTGATGAA: 0.0121 E-score. The same measure for CCAGATGG: 0.0477 E-score. The same measure for CGACATCA: -0.0552 E-score.
